Reference: PubChem BioAssay AID1240 (Sanford-Burnham Center for Chemical Genomics, 2008)
In all, about 50,000 compounds went through this assay and about 800 (1.6%) showed an effect of 50% or more. Some of the results follow.

biological target: Bcl-2-like protein 10 (Homo sapiens) (UniProt Q9HD36); experiment: Phenotype converters, Bcl-B/TR3 peptide binding displacement, primary biochemical FP (AID 1240); details: GST-Bcl-B / FITC-TR3 peptide fluorescence polarization; stronger effect = higher value; compound at 3.75 mg/L;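 also: 0% = Bcl-B with tracer peptide and DMSO and 100% = tracer peptide lacking Bcl-B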
UniProt Q9HD36, sequence (Q9HD36 whole entry, looked up): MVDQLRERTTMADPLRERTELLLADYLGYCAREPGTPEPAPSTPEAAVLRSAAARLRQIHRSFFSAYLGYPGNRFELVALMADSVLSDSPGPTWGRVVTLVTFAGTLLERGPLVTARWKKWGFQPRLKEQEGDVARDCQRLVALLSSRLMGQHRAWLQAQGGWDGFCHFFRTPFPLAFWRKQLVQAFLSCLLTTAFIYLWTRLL

First: CC(C)(C)NC(=O)C(=O)NCc1ccc(Cl)cc1
Second: CN(C)CCCNC(=O)COc1ccc(Cl)cc1
The displacement of the first is higher: 8.2% for the first, 6.3% for the second.

Compared with `O=C1CS/C(=N/N=C/c2ccccc2[N+](=O)[O-])N1`, `O=C1CS/C(=N\N=C\c2ccc([N+](=O)[O-])cc2)N1c1ccc(O)cc1` is lower in displacement: 1.8% for the first, -3.5% for the second.

First: CCC(C)NC(=O)Nc1cccc(Cl)c1 (stereo not given)
Second: COc1ccc(Cl)cc1NC(=O)CC(C)C
The displacement of the first is lower: 1.6% for the first, 7.1% for the second.

Compared with `Cc1cccc(NC(NC(=O)c2ccccc2Cl)C(Cl)(Cl)Cl)c1` (stereo not given), `Cc1cccc(C(=O)NNC(=O)c2ccccc2C)c1` is lower in displacement: 1% for the first, -7.7% for the second.

Going from `COc1cc2nc(-c3ccc([N+](=O)[O-])cc3)oc(=O)c2cc1OC` to `COc1ccc(Br)cc1/C=C\C(=O)Nc1ccc([N+](=O)[O-])cc1OC`, the displacement falls from 78% to 4.8%.

First: COc1ccc(NC(=O)C2(C)CC3c4ccccc4C2c2ccccc23)cc1 (stereo not given)
Second: COc1ccc(NC(=O)CN(c2ccc(Cl)cc2)S(=O)(=O)c2ccccc2)cc1
The displacement of the first is lower: 0.2% for the first, 2.8% for the second.

First: COC(=O)C1=C(C(=O)OC)SC(=C2C(=S)C(C)(C)N(C(=O)c3cccc(C)c3)c3ccc(OC)cc32)S1
Second: COC(=O)COc1ccc(/C=C2\C(=O)C(C(=O)OC)=C(C)N2c2cc(C)cc(C)c2)cc1
The displacement of the first is lower: -4.1% for the first, -1.5% for the second.

Compared with `COc1cc(C2C3C(C)N(C)C(=O)N(C)C3N(C)C(=O)N2C)ccc1O` (stereo not given), `COC(=O)C1=C(C)N(C)C(C)=C(C(=O)OC)C1c1cccc(Br)c1` is lower in displacement: 2.6% for the first, -6.4% for the second.

Going from `CCOC(=O)C1=C(CC)NC2=C(C(=O)CCC2)C1c1cc(OC)ccc1OC` (stereo not given) to `COc1ccc(N2C(=O)c3ccc(OC)c(OC)c3C2=O)cc1`, the displacement rises from 3.8% to 3.9%.

First: O=C(CSC1=NCCS1)n1c2ccccc2c2ccccc21
Second: O=C1CC(c2ccccc2Br)c2c(ccc3ccccc23)N1 (stereo not given)
The displacement of the first is lower: -3.7% for the first, 10.5% for the second.

Compared with `Cc1ccc(/C=N/Nc2cccc3cccnc23)c(O)c1`, `Cc1cccc(C)c1NC(=O)CSCC(=O)Nc1ccc2ccccc2c1` is higher in displacement: -8.5% for the first, 4.7% for the second.

First: CCOc1ccc(/C=C/c2nc(O)c([N+](=O)[O-])c(=O)[nH]2)cc1
Second: CCOC(=O)c1c(NC(=O)/C=C/c2ccc(OC)cc2)sc(C)c1C
The displacement of the first is lower: -5.9% for the first, 7.3% for the second.

Compared with `O=C1NC(=O)N(c2ccc(Br)cc2)C(=O)/C1=C/c1ccc2c(c1)OCO2`, `COc1cc(/C=C2\C(=O)NC(=O)N(c3ccc4c(c3)OCO4)C2=O)ccc1OCc1ccccc1F` is higher in displacement: -17.6% for the first, -17.3% for the second.

Compared with `COc1ccc(C2=C(Nc3cccc([N+](=O)[O-])c3)c3ccccc3C2=O)cc1`, `O=C1c2ccccc2C(=O)c2c1c(-c1ccccc1)nn2-c1ccccc1` is lower in displacement: 14% for the first, -6.1% for the second.

Going from `COC(=O)C1=C(C)N(Cc2cccnc2)C(=O)/C1=C\c1cccc(Cl)c1Cl` to `Cc1ccc(OCC(=O)NNC(=O)c2ccc(Cl)c(Cl)c2)c(C)c1`, the displacement falls from 4.4% to -3.7%.

First: Cc1sc(NC(=O)CC(c2ccccc2)c2ccccc2)c(C(N)=O)c1C
Second: Cc1nc2sc(C(=O)c3ccc(F)cc3)c(N)c2c(C)c1C(=O)Nc1ccccc1
The displacement of the first is lower: -2.3% for the first, 0% for the second.

Going from `CCOc1ccc(N2C(=O)CC(N3CCC(O)CC3)C2=O)cc1` (stereo not given) to `CCOc1ccc(OCC)c(S(=O)(=O)N2CCN(C)CC2)c1`, the displacement rises from -2.2% to 18.4%.

First: O=C(/C=C/c1ccco1)Nc1ccc(-c2nc3ncccc3o2)cc1
Second: O=C(Cc1ccc(Cl)cc1)Nc1ccc(-c2nc3ccccc3s2)cc1
The displacement of the first is lower: -8.2% for the first, 12.9% for the second.

Going from `CCN(CC)c1ccc(/C=C2\C(=O)NC(=S)N(c3ccc(Cl)cc3)C2=O)o1` to `CCN1C(=O)C(=Cc2cccn2-c2ccc([N+](=O)[O-])cc2)C(=O)N(CC)C1=S`, the displacement rises from 3.2% to 46%.

Going from `Cc1[nH]n(-c2ccccc2)c(=S)c1C=Nc1ccc(Br)cc1` to `O=C(Nc1ccc(Br)cn1)c1ccccc1SCc1ccccc1`, the displacement rises from -11.1% to 12.9%.

Going from `O=C(NC(=S)NC1CCSC1=O)c1ccc(Cl)cc1Cl` (stereo not given) to `Cc1cnc(NC(=O)c2ccc(Cl)cc2Cl)s1`, the displacement falls from 6.3% to 3%.

Compared with `CC(C)CNC(=O)c1cccc(NC(=O)c2ccccc2-c2ccccc2C(=O)O)c1`, `COc1cccc(NC(=O)/C(=C\c2cccc(Br)c2)NC(=O)c2ccccc2)c1` is higher in displacement: -3% for the first, 1.1% for the second.

First: Cc1cc(C)nc(NS(=O)(=O)c2ccc(N/C=C/C(=O)c3ccc(Br)cc3)cc2)n1
Second: CC(=O)NS(=O)(=O)c1ccc(NC(=O)c2cc([N+](=O)[O-])ccc2Cl)cc1
The displacement of the first is lower: -13.5% for the first, 6.5% for the second.

First: Cc1ccc(-n2nc3cc(C)c(NC(=O)c4ccc([N+](=O)[O-])cc4Cl)cc3n2)cc1
Second: O=C(Nc1ccc(N2C(=O)C3C4c5ccccc5C(c5ccccc54)C3C2=O)cc1Cl)c1ccc(Cl)cc1Cl (stereo not given)
The displacement of the first is lower: 2.1% for the first, 10% for the second.

Compared with `N/C(=N\OC(=O)c1ccco1)c1ccc([N+](=O)[O-])cc1`, `O=C(Nc1sc2c(c1C(=O)Nc1ccc(Cl)cc1)CCC2)c1ccc([N+](=O)[O-])cc1` is lower in displacement: 5% for the first, 3.7% for the second.

Compared with `CCOc1ccccc1NC(=O)c1c(NC(=O)C(C)(C)C)sc2c1CCCCC2`, `CCOc1ccccc1NC(=O)c1c(OC)cccc1OC` is lower in displacement: 3.9% for the first, -7.3% for the second.

First: CCSc1nc2ccc(NC(=O)c3ccccc3C(=O)N3CCOCC3)cc2s1
Second: O=C(CN(c1cccc(Br)c1)S(=O)(=O)c1ccccc1)N1CCOCC1
The displacement of the first is lower: -1.3% for the first, 6.1% for the second.

Going from `CCOC(=O)c1c(-c2ccccc2)oc2ccc(OCC(=O)OCc3ccccc3)cc12` to `COC(=O)c1ccccc1NC(=O)COc1ccc(-c2ccc(C)cc2)cc1`, the displacement falls from 5.9% to 1.2%.

First: CC(C)C12CN3CC(C(C)C)(CN(C1)C3c1c(O)ccc3ccccc13)C2=O (stereo not given)
Second: CC(C)C12CN3CC(C(C)C)(CN(C1)C3c1ccc(N(C)C)cc1)C2=O (stereo not given)
The displacement of the first is lower: 0.6% for the first, 12.9% for the second.

Going from `COc1ccc(-n2[nH]c(C)cc2=O)cc1` to `COc1ccc(-c2n[nH]c(=S)n2/N=C/c2sccc2C)cc1`, the displacement falls from 9.9% to -9.8%.

Compared with `CCNC(=O)N1c2ccc(C)cc2C(C)=CC1(C)C`, `Cc1cccc(C2(c3cccc(C)c3)CC2C(=O)NCc2ccccc2)c1` (stereo not given) is lower in displacement: -1.6% for the first, -15.9% for the second.

Compared with `COc1cccc(C(=O)Nc2sc(C(=O)OC(C)C)c(C)c2C(=O)OC(C)C)c1`, `COc1cc(NC(=O)c2cccc(Br)c2)ccc1NC(=O)c1ccco1` is higher in displacement: -10.2% for the first, 9.5% for the second.

First: Cc1ccc(/C=c2/sc3n(c2=O)C(N)=C(C#N)C(c2ccc(C)o2)C=3C#N)o1 (stereo not given)
Second: COC(=O)CSc1nc(N)c(C#N)c(-c2ccc(O)cc2)c1C#N
The displacement of the first is lower: -12.7% for the first, 1.7% for the second.

First: CN(C)c1ccc(NC2=NC3(CCCC3)N=C(N)N2)cc1
Second: CC(C)CNC(=O)/C(=C/c1ccc(N(C)C)cc1)NC(=O)c1ccccc1
The displacement of the first is lower: -7.4% for the first, 30.3% for the second.

First: COc1ccc(OC)c(NC(=S)NC(NC(=O)Cc2ccccc2)C(Cl)(Cl)Cl)c1 (stereo not given)
Second: CC(=O)c1ccc(NC(=S)NC(NC(=O)Cc2ccccc2)C(Cl)(Cl)Cl)cc1 (stereo not given)
The displacement of the first is higher: -4.8% for the first, -18.7% for the second.

First: O=C(NCCCO)C(=O)Nc1ccccc1
Second: O=C1CC(Nc2ccccc2)C(=O)N1Cc1ccccc1 (stereo not given)
The displacement of the first is higher: 13.1% for the first, -8.3% for the second.

First: O=C1c2ccccc2NC(c2ccccc2O)N1c1ccc(Cl)cc1 (stereo not given)
Second: Cc1ccc(NC(=O)c2cccc(N3C(=O)C4C5c6ccccc6C(c6ccccc65)C4C3=O)c2)cc1Cl (stereo not given)
The displacement of the first is higher: 14.9% for the first, 8.6% for the second.

Compared with `COC(=O)c1cnn2c(C(F)(F)F)cc(-c3ccc4c(c3)OCO4)nc12`, `CCOc1cc(/C=C2\C=C(c3ccc(OC)cc3)OC2=O)ccc1OC(C)=O` is higher in displacement: -3.9% for the first, 92.4% for the second.

Compared with `Cc1ccc(S(=O)(=O)N(Cc2ccc(C(=O)NCCSc3ccccn3)cc2)c2cccc(Cl)c2)cc1`, `Cc1ccc(N(CC(=O)NCc2cccnc2)S(=O)(=O)c2ccc(F)cc2)cc1` is lower in displacement: -2.5% for the first, -13.1% for the second.

Compared with `O=C1N=C2N(CCN3CCOCC3)c3ccccc3N2/C1=C/c1ccccc1[N+](=O)[O-]`, `O=C(N/N=C\c1ccc(N2CCCC2)c([N+](=O)[O-])c1)c1ccccn1` is lower in displacement: -1.3% for the first, -11.6% for the second.

First: O=c1cc(-c2ccccc2)nc(NO)[nH]1
Second: O=c1c2ccccc2nc2n1CCCN2
The displacement of the first is higher: 11.2% for the first, 7.5% for the second.

First: CCOc1ccccc1NC(=O)CN(c1cccc(Br)c1)S(=O)(=O)c1ccccc1
Second: COc1cc(/C(C)=N/NC(=O)C(O)(c2ccccc2)c2ccccc2)ccc1O
The displacement of the first is lower: -0.2% for the first, 5.6% for the second.

Going from `Cc1ccc(C(=O)Nn2c(O)c(C3=c4cc(Br)ccc4=NC3=O)sc2=S)cc1` to `Cc1ccc(-n2c(=O)c3c4c(sc3n3c(=S)[nH]nc23)CC(C(C)(C)C)CC4)cc1` (stereo not given), the displacement rises from -22% to 1.1%.

First: CCN(CC)c1ccc(C(=O)NCc2ccccc2OC)cc1
Second: Cc1ccc(N(C(=O)COc2ccc(F)cc2)C2C=CS(=O)(=O)C2)cc1 (stereo not given)
The displacement of the first is lower: -7.9% for the first, 4.5% for the second.

Going from `O=C(CC1(C(F)(F)F)NCCN1)c1ccccc1` to `CC1CCCN(C(=O)c2ccccc2)C1` (stereo not given), the displacement rises from 4.8% to 7.8%.

First: Brc1ccc(-c2cn3c(n2)SCC3)cc1
Second: O=C(NCCO)c1cccc2c1-c1ccc(I)cc1C2
The displacement of the first is lower: -8% for the first, 0.4% for the second.

Compared with `CCC1=NN(C(=O)c2cccnc2)C(O)(c2ccccc2)C1` (stereo not given), `Cc1ncc(C[n+]2csc3ccccc32)c(N)n1` is lower in displacement: 16.7% for the first, 8% for the second.

Going from `Cn1c(=O)c2c(nc(-n3ccnc3)n2C)n(C)c1=O` to `COc1ccc(-n2c(O)c(C=Nc3cc(OC)c(OC)c(OC)c3)c(=O)[nH]c2=O)cc1`, the displacement rises from 9.9% to 25.6%.

First: COc1cc(C(=O)Oc2ccc(Cl)cc2C)cc(OC)c1OC
Second: COc1cc(C(=O)Nc2ccc(Br)cc2C(=O)c2cc(OC)c(OC)c(OC)c2)cc(OC)c1OC
The displacement of the first is lower: 2.1% for the first, 22.3% for the second.

Compared with `CCCNC(=S)N1CC2(C)CN(C(=O)C(=O)OC)CC(C)(C1)C2=O`, `CC(=O)N1CC2(C(C)C)CN(C(C)=O)CC(C(C)C)(C1)C2=O` is lower in displacement: 4.3% for the first, 4.1% for the second.

Compared with `CCOc1cc(/C=C2/C(=N)N3N=C(CC)SC3=NC2=O)ccc1OCc1ccc(F)cc1`, `COc1ccc(CCNS(=O)(=O)c2ccc(OC)cc2)cc1` is higher in displacement: 0.1% for the first, 8.4% for the second.

First: O=C(Nc1ncc(Cc2cccc(Cl)c2Cl)s1)C1CC1
Second: O=C(c1ccc([N+](=O)[O-])cc1)N1CCN(CC2CC=CCC2)CC1 (stereo not given)
The displacement of the first is higher: 13.7% for the first, -14.6% for the second.

`COc1ccc(NC(=O)c2cc(NC(=O)c3ccccc3)cc(C(=O)Nc3ccc(OC)cc3)c2)cc1` gave a displacement of 2%.
